From the supplement of paper PMC10126150
Sequences with one replicate were seen in a single cluster, so their values are uncertain.

Test system: ATP
Assay: switch fluorescence ratio, 500 uM ATP over buffer (Cy3 cluster intensity, sum of 5 cycles each) (fold (ratio)); higher = stronger signal-on switching upon ATP binding; sequences stand for … in TCGTCGGCAGCGTCAGATGTGTATAAGAGACAGTTTTTTTTTTTTTTTTTTTTTTTTT…TC
Details: aptamer strand: ATP DNA aptamer (quencher-CACCTGGGGGAGTATTGCGGAGGAAGG + anchor), 100 nM annealed; ATP concentration: 500 uM; one replicate
Outline: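 Clusters with intensities outside 100-1000 RFU were excluded. The remaining Cy3-labelled switching-strand clusters on a modified Illumina MiSeq flow-cell had been annealed to 100 nM quencher-labelled ATP aptamer and imaged in selection buffer, then after 15 min with 500 uM ATP at 22 °C, for five cycles separated by NaOH stripping and re-annealing. The fluorescence ratio, averaged per switch-domain sequence, is each cluster's summed target-cycle Cy3 intensity over its summed buffer-cycle Cy3 intensity.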
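Also: ATP exposure 15 min at 22 °C before imaging.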

Sequence | switch fluorescence ratio
TCATAGGGCG | 1.03
CCGAGTTTAA | 1.39
TCCCTGGTTG | 1.19
CAGTCCGAGG | 0.962
GAGCCAGACA | 0.981
TGGGTTTGAC | 1.04
TTGCCCTGAG | 1.03
ACATTTAGAT | 1.03
ATTTTGCTGA | 0.943
AAAAGGGAG | 1.03
GGCATTCATG | 1.01
TTACTGAT | 1.02
CTTTCTCGTC | 1.04
AGCTGTCCCT | 0.977
CATTTAACT | 0.994
TAGAGGGTTA | 1.01
CCGATGCGAG | 4.64
CTTGTGATGC | 1.63
GACAAGGGTG | 1.06
CCTGGGAATC | 1.49
TCGGGCCCCA | 1.02
CTTGTGGGCT | 1.01
TTACAGGCTT | 1.01
AACACCGAGA | 0.99
AATGCTTTTG | 1.01
GGAATGTAGC | 0.995

Sequence | switch fluorescence ratio
GAGCAAACTT | 1.49
CTTTCAGATA | 1.04
ATAAGCACC | 1.33
CGTACTGTTG | 1.01
CAGACCTCCG | 1.04
CCCTAAGGGC | 1.04
TCGTCTTAGA | 0.947
GGCGAGTGAA | 1.02
TTGGAACTGA | 1.02
ACTATCATAA | 1.06
CAGCTTAAGC | 1.01
CCGACGGGTT | 2.97
CTTAGTTGTC | 0.985
GTTGCTTCCC | 1.12
CAGCTCGGTT | 1.03
ATGTGATAAA | 0.964
ACCATAGCTG | 1.11
AGCCTCGACT | 0.976
ATTACAGAGG | 0.973
AGATATACGC | 1.04
CATACTAGTC | 1.1
CAGTGAAGTA | 1.04
CCGTCCATTT | 1.08
CCTATTTGAT | 1.02
CAATGTTTT | 1
GCAGCTCAGT | 0.942

Sequence | switch fluorescence ratio
CGTTCTGCGA | 1.1
ACGGTGTAAA | 0.987
ATGGGTTAAA | 1.03
TTGCGACCGT | 0.948
AATTTTGAGT | 0.981
CGATGCTTGG | 1.03
AGCTAGAGTG | 1.03
ATCGATGCGC | 1.06
GCCTAGTTAA | 0.992
AGATACTTTA | 0.995
GACAATGGGA | 1.21
CATGCGCCTC | 1.89
ATGAGTCGAA | 0.99
GTGCCCTCTT | 0.963
CCCGGAAAAG | 0.975
TAGTTGTAT | 0.989
TGGAAGGCA | 0.987
ATCCCATCGC | 1.08
TCGGGCATAT | 1.12
GAGTCGAGGT | 1.01
CGACAAGTTG | 1.07
ATCGACTAA | 0.984
GAGCAAGCAT | 1.1
GATACGCTTT | 1.05
AGAGTCCCGG | 1.02
GGGGGTCAT | 0.998

Sequence | switch fluorescence ratio
AGTTTAGGAG | 1
TCTTTATAGC | 1.03
TGAGGTGGT | 1
GCATAGCCAC | 1.04
TTCTCAGGGA | 1.03
TTGTAGATAC | 1.08
CTAGACCAA | 0.956
ATGGGTTGCG | 1.01
ACGTTACGGA | 1.31
TGTCGGAGCT | 1.03
TACGATTGAA | 0.995
CTAAGAGCCC | 1.02
GCTAAAACGG | 1
GATAAGACGC | 1.07
TCGTCCTGT | 1.1
TCGATCCGGG | 0.982
CTCGGCACTA | 3.31
GGCATTTTGA | 0.993
ACAATGTAT | 1
CCTTCGGCCC | 4.19
CGGACGTCTT | 1.02
GGCTGTCGGT | 1.01
GATATGAACA | 1.02
TAATGCTAC | 1.2
TTCAGATCAC | 1
AGCGGGTAAT | 0.947

Sequence | switch fluorescence ratio
AACGTTGT | 1.02
CTTTCAACGA | 0.988
TTTGAGCCCA | 0.997
TCTAGGGAGG | 1.02
TGCAAATGAT | 0.991
CACTCCATGG | 1.01
CATGGTAATA | 0.975
TGTAGGGCTC | 1.05
TATCTCTGGA | 0.975
AGGGCCACT | 1.01
GAGATCGCTA | 0.977
GCCGGGGACT | 0.98
GCGAACAAAT | 1.05
CCCTTACATA | 1.07
CCCCGATACC | 2.14
CGCGTGGAGT | 1.08
GACTTGACAG | 1
TATGCATTTG | 0.934
TTTGGGCACA | 1.34
CTTGACAGGA | 0.964
TTATGCTTGC | 0.966
AGAAATAAGA | 1
CTTCTATTT | 0.972
CCTGCCAACG | 2.19
ATTGATAT | 1
AAGCTATCCA | 1.03

Sequence | switch fluorescence ratio
ACAAAGGACA | 1.03
GTTCGAGGCT | 1.05
ACATGACTAT | 1.1
GTGTTTAGGC | 0.905
TGTAAATTTC | 0.975
GGTGATGCTG | 1.06
CGTTGTGACA | 0.994
ATGTCCCACA | 1.02
GCGAGCAGGT | 1.06
TGCTTCGGG | 1.02
GGGGCTTG | 0.977
AGTAAGGCCC | 0.995
AGTACCAACT | 1.1
TCGTGTAACT | 0.997
ATGGTACGTT | 0.99
CTGACTCAGT | 1.19
ATTCCATACG | 1.07
ACTTTAACCG | 1.15
AAGAATTCCG | 0.998
TGTAAGTCAA | 1.05
TGCTAACTCT | 1
ATTGGACACG | 0.999
ACCCGACTTT | 1.14
TCATTGGCC | 1.02
GGTTTAACCA | 1.01
ACTCAATTGT | 0.981

Sequence | switch fluorescence ratio
GCGTGGGGAT | 1.03
GTTCGCATC | 1.92
CTTACCCGGC | 1.11
TTAGAGGGAA | 0.983
CCAGGGCGCC | 0.98
GCGCAAAAAA | 1.03
CTGTCTCTAT | 1.04
ATATGACGTT | 0.993
GGATCCGTGG | 1.05
GGGACGCGAC | 1.18
GCTATCGCGT | 0.999
AGTGTGGCCG | 1.02
TCATGCATCA | 1.01
GCCGAGCGAG | 0.982
GCCAGGAGTC | 1.03
TCCCGACTCT | 1.03
TTTTTACTCA | 1.03
TGGCTAACGA | 1.02
CCGGGTGGAG | 1.08
TGACCAAAAG | 1
GTAGTCTACT | 1.02
GCCGAAGGAA | 1.13
GATCTGCGTT | 0.985
AAGTCCTGTG | 0.986
CCAAAAATCT | 1.01
CTATGGGTTG | 0.997

Sequence | switch fluorescence ratio
ACCTTCCTTG | 3.29
CTGTGGTAAC | 0.957
CCACCGGGGG | 1.5
GTGTCGGGTA | 0.981
CCCACGGCCT | 1.07
GTATTATTGT | 1.05
AAGCCCGTGC | 0.931
CGTAACTCAT | 1
ATGGGGTACT | 1.03
TTCAGTACGA | 1
GGCTACATT | 0.985
TAGAGTAAAT | 1.03
CTGGGAACGT | 1.02
CCATTCTTCT | 1
AAGTATGCGT | 1.03
AGAGCCTACG | 1.07
TCCGGGCGG | 1.05
TTCACGATAT | 1.13
ATATAGTGTC | 1.1
